Laboratory results: the supplement of paper PMC8728848
The other results are listed elsewhere or left out.

Experiments:
Experiment in all cases: glycan array binding signal (z-score within array); higher = stronger binding
Settings in all cases: glycan notation: IUPAC condensed, linker removed
[1] = biological target: Fuc(a1-3)[Gal3S(b1-4)]GlcNAc6S
How it was run: (§1)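 Glycan array binding is given as a within-array Z-score, which can be read as non-binding when negative. The arrays, 3228 of them, came from the Consortium for Functional Glycomics database and were retained only where the protein sequence was available. Z-scores were averaged across arrays of the same protein sequence at different concentrations or buffers and across linkers.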

[2] = biological target: Fuc(a1-3)[GalNAc(b1-4)]GlcNAc
How it was run: as §1

[3] = biological target: Fuc(a1-3)[GalNAc(b1-4)]GlcNAc6S
How it was run: as §1

Fuc(a1-4)GlcNAc = biological target: Fuc(a1-4)GlcNAc
How it was run: as §1

Fuc(b1-3)GlcNAc = biological target: Fuc(b1-3)GlcNAc
How it was run: as §1

Gal(a1-2)Gal = biological target: Gal(a1-2)Gal
How it was run: as §1

Gal(a1-3)Gal = biological target: Gal(a1-3)Gal
How it was run: as §1

Gal(a1-3)Gal(b1-3)GlcNAc = biological target: Gal(a1-3)Gal(b1-3)GlcNAc
How it was run: as §1

[4] = biological target: Gal(a1-3)Gal(b1-3)GlcNAc(b1-2)Man
How it was run: as §1

[5] = biological target: Gal(a1-3)Gal(b1-3)GlcNAc(b1-2)Man(a1-3)[Gal(a1-3)Gal(b1-3)GlcNAc(b1-2)Man(a1-6)]Man(b1-4)GlcNAc(b1-4)GlcNAc
How it was run: as §1

[6] = biological target: Gal(a1-3)Gal(b1-3)GlcNAc(b1-3)GalNAc
How it was run: as §1

[7] = biological target: Gal(a1-3)Gal(b1-3)GlcNAc(b1-6)GalNAc
How it was run: as §1

[8] = biological target: Gal(a1-3)Gal(b1-3)[Fuc(a1-4)]GlcNAc(b1-2)Man(a1-3)[Gal(a1-3)Gal(b1-3)[Fuc(a1-4)]GlcNAc(b1-2)Man(a1-6)]Man(b1-4)GlcNAc(b1-4)GlcNAc
How it was run: as §1

Gal(a1-3)Gal(b1-4)Glc = biological target: Gal(a1-3)Gal(b1-4)Glc
How it was run: as §1

Gal(a1-3)Gal(b1-4)GlcNAc = biological target: Gal(a1-3)Gal(b1-4)GlcNAc
How it was run: as §1

[9] = biological target: Gal(a1-3)Gal(b1-4)GlcNAc(b1-2)Man
How it was run: as §1

[10] = biological target: Gal(a1-3)Gal(b1-4)GlcNAc(b1-2)Man(a1-3)[Gal(a1-3)Gal(b1-4)GlcNAc(b1-2)Man(a1-6)]Man(b1-4)GlcNAc(b1-4)GlcNAc
How it was run: as §1

[11] = biological target: Gal(a1-3)Gal(b1-4)GlcNAc(b1-3)GalNAc
How it was run: as §1

[12] = biological target: Gal(a1-3)Gal(b1-4)GlcNAc(b1-6)GalNAc
How it was run: as §1

[13] = biological target: Gal(a1-3)Gal(b1-4)[Fuc(a1-3)]GlcNAc
How it was run: as §1

[14] = biological target: Gal(a1-3)Gal(b1-4)[Fuc(a1-3)]GlcNAc(b1-2)Man(a1-3)[Gal(a1-3)Gal(b1-4)[Fuc(a1-3)]GlcNAc(b1-2)Man(a1-6)]Man(b1-4)GlcNAc(b1-4)GlcNAc
How it was run: as §1

Gal(a1-3)GalNAc = biological target: Gal(a1-3)GalNAc
How it was run: as §1

[15] = biological target: Gal(a1-3)[Gal(a1-4)]Gal(b1-4)GlcNAc
How it was run: as §1

[16] = biological target: Gal(a1-4)Gal(b1-3)GlcNAc(b1-2)Man(a1-3)[Gal(a1-4)Gal(b1-3)GlcNAc(b1-2)Man(a1-6)]Man(b1-4)GlcNAc(b1-4)GlcNAc
How it was run: as §1

Gal(a1-4)Gal(b1-4)Glc = biological target: Gal(a1-4)Gal(b1-4)Glc
How it was run: as §1

Gal(a1-4)Gal(b1-4)GlcNAc = biological target: Gal(a1-4)Gal(b1-4)GlcNAc
How it was run: as §1

[17] = biological target: Gal(a1-4)Gal(b1-4)GlcNAc(b1-2)Man(a1-3)[Gal(a1-4)Gal(b1-4)GlcNAc(b1-2)Man(a1-6)]Man(b1-4)GlcNAc(b1-4)GlcNAc
How it was run: as §1

[18] = biological target: Gal(a1-4)Gal(b1-4)GlcNAc(b1-3)Gal(b1-4)Glc
How it was run: as §1

Gal(a1-4)GlcNAc = biological target: Gal(a1-4)GlcNAc
How it was run: as §1

Gal(a1-6)Glc = biological target: Gal(a1-6)Glc
How it was run: as §1

Gal(b1-2)Gal = biological target: Gal(b1-2)Gal
How it was run: as §1

Gal(b1-3)Gal = biological target: Gal(b1-3)Gal
How it was run: as §1

Gal(b1-3)Gal(b1-4)GlcNAc = biological target: Gal(b1-3)Gal(b1-4)GlcNAc
How it was run: as §1

Gal(b1-3)GalNAc = biological target: Gal(b1-3)GalNAc
How it was run: as §1

[19] = biological target: Gal(b1-3)GalNAc(a1-3)[Fuc(a1-2)]Gal(b1-4)Glc
How it was run: as §1

[20] = biological target: Gal(b1-3)GalNAc(a1-3)[Fuc(a1-2)]Gal(b1-4)GlcNAc
How it was run: as §1

Gal(b1-3)GalNAc(b1-3)Gal = biological target: Gal(b1-3)GalNAc(b1-3)Gal
How it was run: as §1

[21] = biological target: Gal(b1-3)GalNAc(b1-3)Gal(a1-4)Gal(b1-4)Glc
How it was run: as §1

[22] = biological target: Gal(b1-3)GalNAc(b1-4)Gal(b1-4)Glc
How it was run: as §1

[23] = biological target: Gal(b1-3)GalNAc(b1-4)[Neu5Ac(a2-3)]Gal(b1-4)Glc
How it was run: as §1

Gal(b1-3)GlcNAc = biological target: Gal(b1-3)GlcNAc
How it was run: as §1

[24] = biological target: Gal(b1-3)GlcNAc(a1-3)Gal(b1-4)GlcNAc
How it was run: as §1

[25] = biological target: Gal(b1-3)GlcNAc(a1-6)Gal(b1-4)GlcNAc
How it was run: as §1

Gal(b1-3)GlcNAc(b1-2)Man = biological target: Gal(b1-3)GlcNAc(b1-2)Man
How it was run: as §1

[26] = biological target: Gal(b1-3)GlcNAc(b1-2)Man(a1-3)[Gal(b1-3)GlcNAc(b1-2)Man(a1-6)]Man(b1-4)GlcNAc(b1-4)GlcNAc
How it was run: as §1

B1: GS7807P-bth-537-23-537 (Bacteroides thetaiotaomicron) (protein)
chain: NYENINSNPYEAPDLSADGYALGSAMNNLAGCVVSPDVNTAQFTDCLLGGPLGGYFADSNAGFTETISNFNPKDDWSRVFLKSDKIIPTLYSNLTQVKLVSQNTNDPVPYAIAQVIKVAAMHRVTDAFGPIPYSQIGANGEIATPYDSQEVTYNTFFDELNAAIATLNENSNEQLVPTADYIYKGDVKKWIRFANSLKLRLAIRIAYANPVKAQQMAEEAVNPANGGVIESNADNATWNYFETSQNPIYVATRYNQVQTSDHGGVPCLTGGDTHAAADIICYMNGYKDNRREKFFTKSEWAGQDYVGMRRGIVIPELKTTGHKYSGVNIAPTSPLYWMNAAEVAFLRAEGQAVFNFSMGGTAESFYNQGIRLSFEQWGADGVEDYLKDDVNKPTAYTDPAGTNTYQNALSNITIKWNDSADKEEKQERIIVQKWIANWQLGNEAWADFRRTGYPKLIPVKENKSGGVVDSEKGARRMPYPLDEFVSNKANVEYAIANYLHGADNMATDVWWASKK
[1]
  glycan array binding signal (z-score): -0.388
[2]
  glycan array binding signal (z-score): 0.192
[3]
  glycan array binding signal (z-score): -0.273
Fuc(a1-4)GlcNAc
  glycan array binding signal (z-score): -0.324
Fuc(b1-3)GlcNAc
  glycan array binding signal (z-score): -0.323
Gal(a1-2)Gal
  glycan array binding signal (z-score): -0.396
Gal(a1-3)Gal
  glycan array binding signal (z-score): 0.004
Gal(a1-3)Gal(b1-3)GlcNAc
  glycan array binding signal (z-score): 0.94
[4]
  glycan array binding signal (z-score): 1.1
[5]
  glycan array binding signal (z-score): 0.266
[6]
  glycan array binding signal (z-score): 0.726
[7]
  glycan array binding signal (z-score): 0.143
[8]
  glycan array binding signal (z-score): 1.45
Gal(a1-3)Gal(b1-4)Glc
  glycan array binding signal (z-score): -0.101
Gal(a1-3)Gal(b1-4)GlcNAc
  glycan array binding signal (z-score): 0.266
[9]
  glycan array binding signal (z-score): -0.141
[10]
  glycan array binding signal (z-score): 0.323
[11]
  glycan array binding signal (z-score): -0.162
[12]
  glycan array binding signal (z-score): -0.157
[13]
  glycan array binding signal (z-score): 0.577
[14]
  glycan array binding signal (z-score): -0.312
Gal(a1-3)GalNAc
  glycan array binding signal (z-score): 0.008
[15]
  glycan array binding signal (z-score): 0.802
[16]
  glycan array binding signal (z-score): 0.331
Gal(a1-4)Gal(b1-4)Glc
  glycan array binding signal (z-score): -0.375
Gal(a1-4)Gal(b1-4)GlcNAc
  glycan array binding signal (z-score): -0.204
[17]
  glycan array binding signal (z-score): -0.139
[18]
  glycan array binding signal (z-score): -0.332
Gal(a1-4)GlcNAc
  glycan array binding signal (z-score): -0.402
Gal(a1-6)Glc
  glycan array binding signal (z-score): -0.354
Gal(b1-2)Gal
  glycan array binding signal (z-score): -0.345
Gal(b1-3)Gal
  glycan array binding signal (z-score): -0.354
Gal(b1-3)Gal(b1-4)GlcNAc
  glycan array binding signal (z-score): 0.851
Gal(b1-3)GalNAc
  glycan array binding signal (z-score): -0.214
[19]
  glycan array binding signal (z-score): -0.313
[20]
  glycan array binding signal (z-score): -0.075
Gal(b1-3)GalNAc(b1-3)Gal
  glycan array binding signal (z-score): -0.372
[21]
  glycan array binding signal (z-score): 0.168
[22]
  glycan array binding signal (z-score): 0.496
[23]
  glycan array binding signal (z-score): -0.335
Gal(b1-3)GlcNAc
  glycan array binding signal (z-score): -0.21
[24]
  glycan array binding signal (z-score): 0.268
[25]
  glycan array binding signal (z-score): -0.173
Gal(b1-3)GlcNAc(b1-2)Man
  glycan array binding signal (z-score): -0.221
[26]
  glycan array binding signal (z-score): 0.031
